ChEMBL document CHEMBL4888484, “Replenishing the malaria drug discovery pipeline: Screening and hit evaluation of the MMV Hit Generation Library 1 (HGL1) against asexual blood stage Plasmodium falciparum ,using a nano luciferase reporter read-out” (2022)
Out of some 150,000 compounds screened, about 540 (0.36%) showed an effect of 50% or more. The list shows a part of the results.

Test system: Plasmodium falciparum
Experiment: Primary screen in NF54 nanoGlo assay, in single point, at 2uM, 72h; a lower Z score goes with more inhibition
Assay type: functional, Erythrocyte
Settings: timepoint 72 hour

Row | SMILES | % Inhibition [%] | Z score
1 | Cc1ccc(CN2CC(N3CCCCC3)C2)s1 | -3 | 0.35
2 | Cc1c(NCc2cccnc2)cccc1C(=O)N1CCN(C)C(=O)[C@@H]1C | -17 | 1.87
3 | Cc1cc(C)nc(OCC2(O)CCN(C(=O)CC(C)C)CC2)n1 | -4 | 0.76
4 | c1coc(-c2nnc3c4ccccc4nc(N4CCN(Cc5ccc6c(c5)OCO6)CC4)n23)c1 | 5 | -0.63
5 | Fc1cc2ncnc(Oc3ccc(-n4cncn4)cc3)c2cc1Br | -16 | 1.85
6 | CC(C)Cc1cc(-c2cn(C[C@H]3CNCCO3)nn2)n[nH]1 | -19 | 1.83
7 | CC1(C)CN(C[C@H](O)c2ccccc2Cl)CCN1C[C@H](O)c1ccccc1Cl | 6 | -0.56
8 | OC1CCN(c2ccnc(N3C[C@@H]4[C@@H]5CC[C@@H](C5)[C@@H]4C3)n2)C1 (some centres undefined) | -4 | 0.59
9 | O=C1CCc2cc(S(=O)(=O)Oc3ccc(F)cc3Cl)ccc2N1 | 4 | -0.79
10 | CCn1cc(C2OCCC2CNCc2ccc3c(c2)CCO3)cn1 (centres undefined) | -3 | 0.27
11 | Cc1cc(C(=O)N(C)C[C@H](C)c2nnn[nH]2)c2c(C(C)C)noc2n1 | -1 | 0.12
12 | CN(Cc1ccc2nccnc2c1)C(=O)c1ccc(CCC(C)(C)O)cc1 | -6 | 0.82
13 | COc1nc(C)cc(C)c1CN1C[C@@](C)(Cc2ccc3c(c2)OCO3)CCC1=O | 0 | -0.03
14 | Cc1ccccc1NC(=O)N1CCN(c2nc(-c3ccc(C(F)(F)F)cc3)nc(C)c2C(C)C)CC1 | 0 | 0
15 | Cc1nc(N2CCC[C@H]2c2nc3ccccc3s2)c2cnn(C(C)(C)C)c2n1 | -4 | 0.56
16 | CC1CC(C)CN(C(=O)c2ccc(=O)n(C)c2)C1 (centres undefined) | -3 | 0.46
17 | Cc1nn(-c2ccc(F)cc2)c2nc(C3CC3)nc(N3CCN(C(=O)c4ccccc4Cl)CC3)c12 | -15 | 1.56
18 | O=S(=O)(NC[C@H]1CCCNC1)c1c(Cl)cc(F)cc1Br | -25 | 3.3
19 | c1ccc(-n2ccnc2[C@H]2OCC[C@@H]2Nc2nccs2)cc1 | 2 | -0.29
20 | CCOc1cccc(CN[C@H]2COCc3ccccc32)n1 | -24 | 2.22
21 | Cc1cnc(CNC2(c3ccc(Cl)cc3)CCCC2)cn1 | -6 | 1.22
22 | C[C@H](ON=C(N)Cn1cccn1)C(=O)Nc1cccc(Br)c1 | 5 | -0.83
23 | CNc1ncccc1C(=O)N1C[C@@H]2NC(=O)c3ccc(OC)c(c3)OCCn3cc(nn3)CO[C@H]2C1 | -14 | 1.8
24 | COc1ccccc1NC[C@H]1CCC=CO1 | -5 | 0.73
25 | Cc1nc(NCCc2noc(CO)n2)c2c(C)noc2n1 | -15 | 2.5
26 | Cc1nn(C)c2nc(-c3ccncc3)nc(N(C)CCN3CCCCCC3)c12 | 3 | -0.6

Row | SMILES | % Inhibition [%] | Z score
27 | CCOc1ncccc1C(=O)NC1CCN(c2nc(C)nc3c2CCCC3)CC1 | -3 | 0.6
28 | CCC(Oc1ccc2c(c1)C(c1ccc(F)cc1)N(C(=O)C1CCCC1)CC2)C(=O)N(C)Cc1ccccc1 (centres undefined) | -16 | 2.17
29 | O=C(CCNS(=O)(=O)c1ccc(Cl)cc1)N[C@H]1CCS(=O)(=O)C1 | 7 | -1.25
30 | COc1cccc(Cn2ncnc2-c2cc(C)nc(C)n2)c1 | -14 | 1.87
31 | COc1ccc2c(c1)-c1nc(-n3ncc(C(=O)O)c3C)ncc1CC2 | -11 | 1.98
32 | Cc1nc(C)c(S(=O)(=O)Nc2cc(Br)ccc2S(C)(=O)=O)s1 | 8 | -0.97
33 | O[C@H]1CC[C@@H](c2nc(-c3cccc(F)c3)n[nH]2)CC1 | -7 | 1.11
34 | Cc1cc(C(=O)N[C@H]2CC[C@H](Oc3cnccn3)CC2)c(C)o1 | -10 | 1.19
35 | C[C@@H](C(=O)N1CCN(c2ccc3nccn3n2)CC1)n1ccnc1 | -3 | 0.34
36 | O=C(COc1ccc(-c2ccccc2)cc1)Nc1ccc(-n2cnnn2)cc1 | -5 | 0.64
37 | COc1ccnc(N2CC[C@H](S(=O)(=O)N3CCCC3)C2)n1 | -11 | 1.72
38 | Cc1nn(-c2ccccc2)c2nc(C3CC3)nc(N3CCN(S(=O)(=O)c4ccc(Cl)cc4)CC3)c12 | -6 | 1
39 | O=S(=O)(c1ccc2c(c1)CCCC2)N1CCCN(C2CCC2)CC1 | -18 | 3.12
40 | Fc1ccc(-c2nc(CN(Cc3ccccn3)C3CC3)co2)cc1 | -17 | 2.37
41 | CO[C@H]1CCOC[C@@H]1NC(=O)NCc1noc2cc(F)ccc12 | -11 | 1.39
42 | CCn1cccc(CNC(=O)[C@@H]2COCCN2CC2CCC2)c1=O | 7 | -1.3
43 | Cc1cc(CN(C)C[C@@H]2C[C@H](F)CN2Cc2nccn2C)ccn1 | -14 | 1.78
44 | Cc1cncnc1C1CCN(C(=O)CCOc2ccccc2)CC1 | -9 | 1.46
45 | Cc1nn(C(=O)C2CCCCC2)c(C)c1CNC(=O)C1CCCCC1 | -2 | 0.32
46 | c1ccc2cc(-c3ncc(CN4CCC4)cn3)ccc2c1 | -9 | 1.19
47 | CO[C@H]1CN(c2cc(Cl)ccc2C#N)C[C@@H]1O | 14 | -1.77
48 | Cc1noc(C)c1S(=O)(=O)N(C)Cc1nc2ccccc2c(=O)[nH]1 | -9 | 1.15
49 | CN(Cc1cn(C)nn1)C(=O)Nc1ccc(CS(=O)(=O)C(C)(C)C)cc1 | -4 | 0.61
50 | CN1C[C@H](NC(=O)c2cc(C3CC3)n[nH]2)c2sccc2S1(=O)=O | -4 | 0.77
51 | CCn1cnnc1CC1CCN(C(=O)CCn2c3c(c4ccccc42)CCCC3)CC1 | 0 | 0.02
52 | O=C(c1ccc(Cl)cc1)[C@H]1CCCN(C2CCN(Cc3ccccc3)CC2)C1 | -18 | 1.9
